According to PubChem BioAssay AID504374 (National Center for Advancing Translational Sciences (NCATS), 2011):
The campaign covered roughly 1,500 compounds. About 100 (6.7%) were called active. The shares of active, inactive and inconclusive entries below differ from those in the screen. Calls come from the whole dose curve; as a rule, active = well fitted inhibition curve with a large enough effect; inconclusive = small, poorly fitted or top-dose-only effect, or effect the other way; inactive = flat fitted curve, though single readings scatter. Potencies of inconclusive entries are left out as doubtful fits.

What follows are compounds tested against Runt-related transcription factor 1 (Homo sapiens) + Core-binding factor subunit beta (Homo sapiens) (UniProt Q01196+Q13951) (assay: qHTS Assay for Compounds Blocking the Interaction Between CBF-beta and RUNX1 for the Treatment of Acute Myeloid Leukemia: Hit Validation). Details: AlphaScreen CBFb-His/RUNX1-biotin binding; series mostly up to 59.8 µM.
Chain of UniProt Q01196 (Q01196 whole entry, looked up): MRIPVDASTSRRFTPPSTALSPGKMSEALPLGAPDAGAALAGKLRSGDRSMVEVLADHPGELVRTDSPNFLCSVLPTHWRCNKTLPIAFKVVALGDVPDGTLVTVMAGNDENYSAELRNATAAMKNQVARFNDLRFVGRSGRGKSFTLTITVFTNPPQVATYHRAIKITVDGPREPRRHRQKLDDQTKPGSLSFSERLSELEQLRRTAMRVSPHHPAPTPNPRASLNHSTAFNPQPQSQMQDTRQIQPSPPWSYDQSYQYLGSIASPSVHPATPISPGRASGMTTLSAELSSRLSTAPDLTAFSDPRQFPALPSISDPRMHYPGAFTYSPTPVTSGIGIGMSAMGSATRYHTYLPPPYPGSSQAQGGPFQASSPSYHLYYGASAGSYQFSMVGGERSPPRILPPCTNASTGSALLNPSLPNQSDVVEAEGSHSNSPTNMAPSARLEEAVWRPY
Chain of UniProt Q01196 (Q13951 whole entry, looked up): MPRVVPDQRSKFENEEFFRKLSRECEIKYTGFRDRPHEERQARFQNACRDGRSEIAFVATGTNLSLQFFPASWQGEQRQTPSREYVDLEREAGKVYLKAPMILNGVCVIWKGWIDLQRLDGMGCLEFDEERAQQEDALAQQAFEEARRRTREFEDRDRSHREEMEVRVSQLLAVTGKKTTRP
In short: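 Compounds were added to a premixed CBF-beta-His/RUNX1-biotin complex (30 nM each, 20 min) for 15 min. Nickel and streptavidin AlphaScreen beads followed for 90 min at room temperature, with emission at 440 nm […].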
Note: nearly all actives have a fitted effect of over 60% in size.
Potency is the fitted concentration of half-maximal effect; tags give direction and shape of the fitted curve.

SMILES	Potency
COc1ccc(CCNC(=S)NCCc2ccc(OC)c(OC)c2)cc1OC	inactive
CC(C)(C)OC(=O)N1Cc2cc3ccccc3nc2C1CO (centres undefined)	inactive
CCN(CC)c1ccc(/C=N/N2CCN(Cc3ccc(Cl)cc3)CC2)c(O)c1	inconclusive [inhibitor, single point]
Fc1ccc([C@H]2CCNCC2COc2ccc3c(c2)OCO3)cc1 (some centres undefined)	inconclusive [inhibitor, partial curve, poor fit]
Oc1ccccc1/C=N/Nc1ncc(Br)cn1	active: 3.55 µM
COc1ccc(C2Sc3ccccc3N(CCN(C)C)C(=O)C2OC(C)=O)cc1 (centres undefined)	inconclusive [inhibitor, full curve, poor fit]
COc1cccc2c1NC(C(=O)O)C1CC=CC21 (centres undefined)	active: 14.1 µM
Cc1cccc(NC(=S)N(CCN(C)C)C(C)c2ccccn2)c1 (centres undefined)	active: 6.87 µM
CCOC(=O)/C=C(\C)Sc1cc(O)c2ccccc2c1O	inconclusive [inhibitor, partial curve, poor fit]
Nc1c(C(=O)NCC2CCCO2)sc2nc3c(c(-c4ccco4)c12)CC/C3=C\c1ccco1 (centres undefined)	active: 12.6 µM
O=C1c2ccccc2C(=O)N1/N=C/c1ccc(O)c(O)c1O	inconclusive [inhibitor, full curve]
O=C1c2ccccc2C(=O)c2c(Nc3ccc(CCO)cc3)ccc(O)c21	active: 0.794 µM
Oc1ccccc1/C=N/Nc1nn[nH]n1	inconclusive [inhibitor, single point]
O=C(O)C1=CC(=C(c2ccc(O)c(C(=O)O)c2)c2ccc(O)c(C(=O)O)c2)C=CC1=O	active: 1.78 µM
CCOc1ccc(N=C/C=C/c2ccccc2)c(O)c1	inconclusive [inhibitor, single point]
Cc1cc(NC(=O)c2c(-c3c(F)cccc3Cl)noc2C)no1	inactive
C=C1c2cccc(O)c2C(O)=C2C(=O)[C@]3(O)C(O)=C(C(N)=O)C(=O)[C@@H](N(C)C)[C@@H]3[C@@H](O)[C@H]12	inconclusive [inhibitor, full curve, poor fit]
CSc1ccc(C(=O)NCC(=O)O)cc1[N+](=O)[O-]	inactive
Brc1ccc(Cn2c(-c3ccc(Br)o3)nc3ccccc32)o1	inconclusive [inhibitor, full curve]
CC(=O)Nc1ccc(Nc2cc(C(C)C)nc3c(-c4ccccc4)c(C)nn23)cc1	inconclusive [inhibitor, partial curve, poor fit]
Cc1ccccc1/C=N/n1c(-c2ccccn2)n[nH]c1=S	inconclusive [inhibitor, partial curve, poor fit]

SMILES	Potency
CN(C)c1nc(-c2ccccn2)nnc1-c1ccccc1	active: 1.41 µM
O=C1OCC2OC(O)C(O)C(O)C2OC(=O)c2cc(O)c(O)c(O)c2-c2c(O)c(O)c3oc(=O)c4c(c(O)c(O)c5oc(=O)c2c3c54)-c2c1cc(O)c(O)c2O (centres undefined)	active: 0.224 µM
c1ccc(-c2ccccn2)nc1	active: 7.94 µM
Cc1cccc(-c2n[nH]c(=S)n2/N=C/C=C/c2ccco2)c1	inconclusive [inhibitor, partial curve, poor fit]
O=C(O)c1ccc(/C=N\Nc2ccc(S(=O)(=O)N3CCOCC3)cc2[N+](=O)[O-])cc1	inactive
O=C(CSc1n[nH]c(=O)[nH]c1=O)Nc1ccc2c(c1)C(=O)c1ccccc1C2=O	inconclusive [inhibitor, partial curve, poor fit]
CC1CC2OC(=O)C3(C)CCCC(C)(C23)C1(O)CCc1ccoc1 (centres undefined)	inconclusive [inhibitor, single point]
COC(=O)/C(=C\Nc1ccc(Oc2ccc(F)cc2F)nc1)NC(=O)c1ccccc1	inconclusive [inhibitor, partial curve, poor fit]
Cc1nc2ccc(NC(=S)N3CCOCC3)cc2nc1C	inconclusive [inhibitor, partial curve, poor fit]
CC(C)=CC[C@@H](O)C1=CC(=O)c2c(O)ccc(O)c2C1=O	inconclusive [activator, partial curve]
CC1=NN(c2nc3ccccc3[nH]2)C(=O)C1Cc1ccccc1 (centres undefined)	inconclusive [inhibitor, partial curve]
C/C(=N\Nc1ccc(Cl)c(C(=O)O)c1)c1cccs1	inconclusive [inhibitor, single point]
Clc1ccccc1/C=C/c1nc(-c2ccccn2)no1	inactive
CCCCNC(=O)Nc1ncn[nH]1	inactive
O=C1CSC(=S)N1/N=C/c1ccc(O)c(O)c1O	active: 0.562 µM
O=C(O)c1ccc(N/N=C/C2=C(N3CCOCC3)C(=C\c3ccccc3)/CC2)cc1	inconclusive [inhibitor, partial curve, poor fit]
C=CCn1c(=O)c2ccccc2n2nnc(C(=O)OCC)c12	inactive
CC(=O)NCC1(O)CCCC(C)C1 (centres undefined)	inactive
COc1cc(O)c2c(c1)oc(=O)c1c3cc(O)c(O)cc3oc21	active: 3.16 µM
CSc1ccc2c(c1)C(N1CCN(C)CC1)Cc1ccccc1S2 (centres undefined)	inconclusive [inhibitor, partial curve, poor fit]
Oc1csc(Cc2nc(-c3ccccc3F)cs2)n1	inconclusive [inhibitor, partial curve]

SMILES	Potency
CC(/C=N/NC(=O)c1cc(-c2cccn2C)n[nH]1)=C\c1ccccc1	inconclusive [inhibitor, partial curve, poor fit]
O=[N+]([O-])c1c(C(Cl)Cl)nn(-c2ccccc2)c1N1CCCC1	inconclusive [activator, full curve]
Cc1ccc(S(=O)(=O)NC(=O)Nc2ccc(OC(F)F)cc2)cc1	inactive
Brc1ccc(C2Nc3cccc4cccc(c34)N2)o1	active: 14.1 µM
CC1CC(=O)Nc2ccccc2N1C(=O)Nc1ccc(F)cc1 (centres undefined)	inconclusive [activator, single point]
CCOc1ccc(Nc2nc(N)nc(CCl)n2)cc1	inconclusive [inhibitor, partial curve, poor fit]
CCc1sc(N)nc1-c1ccccc1	inconclusive [inhibitor, full curve]
Cc1[nH]c(N=Nc2ccccc2)nc1N=Nc1ccccc1	inconclusive [inhibitor, partial curve, poor fit]
O=C(O)/C=C/C(=O)Nc1cccc2cccnc12	inconclusive [inhibitor, partial curve, poor fit]
Cc1ccc(N/N=C(\C#N)C(=N)N2CCCCC2)cc1	inconclusive [inhibitor, partial curve, poor fit]
Cc1cc(C)nc(S/C=C/C(=O)c2ccccc2F)n1	inconclusive [inhibitor, single point]
CC1(C)N([O-])C2=C(CCCC2)[N+]1=O	inconclusive [inhibitor, full curve, poor fit]
Cc1cc(C(=O)NC2Cc3ccccc3C2)c(C)o1	inconclusive [inhibitor, full curve]
Cc1ccc(SC2=C(Sc3ccc(C)cc3)C(=O)c3ccccc3C2=O)cc1	inconclusive [inhibitor, partial curve, poor fit]
c1ccc(-c2ccc(-c3nccc4ccccc34)[nH]2)cc1	inconclusive [activator, partial curve]
COc1ccc(Oc2nc(-c3ccccn3)ncc2OC)cc1	active: 12.6 µM
CC(=O)Nc1ccc(S(=O)(=O)Nc2cc(-c3ccccc3)nn2C)cc1	inactive
Nc1nc(CCl)nc(Nc2cccc3ccccc23)n1	inconclusive [inhibitor, partial curve, poor fit]
O=[N+]([O-])c1ccc(O)c(/C=N/NC2=NS(=O)(=O)c3ccccc32)c1	active: 2.82 µM
Cc1onc(-c2c(Cl)cccc2Cl)c1NC(=O)NC1CCSC1 (centres undefined)	inactive
c1ccc(CSc2ccc(-c3ccccn3)nn2)nc1	active: 2.51 µM

SMILES	Potency
O=c1nc(SCc2ccc(Cl)cc2)nc(-c2ccccc2)[nH]1	inconclusive [inhibitor, partial curve, poor fit]
O=c1[nH]cc(I)cc1I	active: 17.3 µM
CCOc1ccc(NC(=O)CSc2ccc(-c3ccccn3)nn2)cc1	active: 5.01 µM
O=C(COc1ccc([N+](=O)[O-])cc1Cl)N1CCOCC1	inactive
Oc1ccc(/C=N/NC(=S)Nc2cccnc2)c(O)c1O	active: 1.26 µM
CCCCCCCCCCCCCCCCCCOC[C@H](COP(=O)([O-])OCC[N+](C)(C)C)OC	inconclusive [activator, full curve]
CC(/C=N/n1c(-c2ccccn2)n[nH]c1=S)=C\c1ccccc1	inconclusive [inhibitor, partial curve, poor fit]
COCc1cc(O)c(O)c(O)c1-c1c(COC)cc(O)c(O)c1O	active: 0.631 µM
N#CCCN1CCCc2cc(N=Nc3ccc(C(F)(F)F)cc3)ccc21	inconclusive [inhibitor, partial curve, poor fit]
CCN(CC)CCNC(=O)c1ccc2c(c1NCCO)C(=O)c1ccccc1C2=O	inconclusive [inhibitor, partial curve]
c1ccc(C2=Nn3c(Cn4nnc5ccccc54)nnc3SC2)cc1	inconclusive [inhibitor, single point]
Oc1ccc(/C=N/NC(=S)Nc2cccnc2)c(O)c1	active: 1.58 µM
CCNC1=C(Cl)C(=O)c2ccccc2C1=O	inconclusive [inhibitor, full curve]
COC(=O)c1cc(NS(=O)(=O)c2ccc(F)cc2)ccc1N1CCOCC1	inactive
O=C(NN1C(=O)CSC1=S)C(=O)NN1C(=O)CSC1=S	active: 8.91 µM
Cc1ccc(C(=O)N/C(=C\c2ccc(C)o2)C(=O)O)cc1	inconclusive [inhibitor, single point]
CC(=O)c1ccc(Sc2ccccc2)c([N+](=O)[O-])c1	inconclusive [inhibitor, partial curve, poor fit]
Oc1ccc2ccccc2c1N=Nc1nccs1	inconclusive [inhibitor, full curve, poor fit]
Nc1cccc(N)c1	inconclusive [activator, full curve]
COc1ccc(S(=O)(=O)N2CCOCC2)cc1N=Nc1sc(N)nc1-c1ccccc1	inconclusive [inhibitor, full curve]
CCCC(=O)c1cc(O)c(O)cc1O	active: 4.47 µM
